In patent US11155586B2, “Cystine knot scaffold platform” (Genentech, Inc., priority 2015, dated 2021):
Like-named read-outs stand apart in the source and are kept apart here. For at least one compound, name, drawing or mass did not settle the structure. Positions of bridges follow the written chain, without caps; N, C: chain ends. Residues, ends and D or L forms follow the SMILES beside them.

Molecular target: T1, hVEGF-A (Homo sapiens, UniProt P15692)
T1 sequence (P15692 207-395): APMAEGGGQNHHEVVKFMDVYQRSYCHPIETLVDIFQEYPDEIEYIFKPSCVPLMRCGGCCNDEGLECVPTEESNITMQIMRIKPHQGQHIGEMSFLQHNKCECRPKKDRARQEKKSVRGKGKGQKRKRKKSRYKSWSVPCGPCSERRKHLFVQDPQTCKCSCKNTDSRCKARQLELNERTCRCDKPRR
Experiment: KDR-CHO VEGF assay to determine cellular IC50 (VEGF mediated Tyr phosphorylation of KDR)
Type: cell-based
Conditions: read-out: Cellular IC50
Protocol: KDR-CHO cells (CHO cells stably transfected with gD tagged-KDR) were grown in cell growth medium (DMEM/Ham's F-12, 10% diafiltered FBS (GIBCO catalog no. 26400), 25 mM HEPES, 2 mM L-GLUTAMAX™). For VEGF stimulation assay, 5×10^4 cells/well were plated in 100 μl of cell plating medium (DMEM/Ham's F-12, 0.2% BSA, 0.25% diafiltered FBS, 25 mM HEPES, 2 mM L-GLUTAMAX™) in 96-well tissue culture plate and incubated at 37° C. overnight. The medium was replaced with 100 I1 of serum-free cell stimulation medium (DMEM/Ham's F-12, 0.5% BSA, 25 mM HEPES) and cells were incubated at 37° C. for 2 hr. One hour before stimulation, the medium was replaced with 50 I1 of serum-free cell stimulation medium. Concurrently, VEGF (50 ng/ml for hVEGF, 100 ng/ml for mVEGF and rVEGF) was pre-incubated with titrated amount of CKP or anti-VEGF in 50 μl of serum-free cell stimulation medium at 37° C. for 1 hour and added to the cells. The cells were stimulated for 15 min at 37 C and the medium is removed. The cells were lysed with 130 I1 of ice-cold cell lysis buffer (150 mM NaCl, 50 mM HEPES, 0.5% Triton-X 100, HALT protease and phosphatase inhibitor cocktail (ThermoFisher Scientific, Inc. catalog no. 78444), 5 mM EDTA). VEGF mediated Tyr phosphorylation of KDR was determined by ELISA-based assay. Briefly, MAXISORP™ 96 well plates (ThermoFisher Scientific, Inc. catalog no. 439454) were coated with 100 I1 of anti-gD antibody diluted in PBS (1 μg/ml) at 4° C. overnight and washed three times with washing buffer (PBS, 0.05% TWEEN®20, pH 7.4). The plates were blocked with 300 I1 of blocking buffer (PBS, 0.5% BSA) at room temperature for 1 hour followed by washing three times with washing buffer. The above KDR-CHO cell lysate (100 μl) was added to each well and incubated at room temperature for 2 hours. The plates were washed four times with washing buffer followed by incubation with 100 I1 of 0.5 μg/ml biotin-conjugated anti-phosphotyrosine (clone 4G10, Millipore catalog no. 16-103) in blocking buffer at room temperature for 2 hours. After washing four times, the plates were incubated with 100 I1 of HRP-conjugated streptavidin in blocking buffer at room temperature for 30 min. After washing four times, the plates were developed with 100 I1 of TMB substrate (BD Biosciences) at room temperature for 20-30 min and stopped by addition of 50 μl of H2SO4 solution. The optical density of each well was determined using a microplate reader set to 450 nm.

[1] = Table 36, loop 3/loop 4 variants
[2] = Table 38, F8Y and/or unnatural amino acid variants

| SMILES | IC50 [1] [nM] | IC50 [2] [nM] |
| --- | --- | --- |
| CC[C@H](C)[C@H](NC(=O)[C@@H]1CSSC[C@H](NC(=O)CN)C(=O)N[C@@H](CC(N)=O)C(=O)N[C@@H]([C@@H](C)CC)C(=O)N[C@@H](CCSC)C(=O)N[C@@H](CC(C)C)C(=O)N2CCC[C@H]2C(=O)N[C@@H](Cc2ccccc2)C(=O)N[C@@H](Cc2c[nH]c3ccccc23)C(=O)NCC(=O)N[C@H]2CSSC[C@H](NC(=O)[C@H](CCC(=O)O)NC(=O)[C@H](Cc3ccccc3)NC(=O)[C@H](CC(=O)O)NC(=O)[C@H](CCCNC(=N)N)NC(=O)CNC2=O)C(=O)N[C@@H](CCSC)C(=O)N[C@@H](CO)C(=O)N[C@@H](CC(=O)O)C(=O)N1)C(=O)N[C@H]1CSSC[C@@H](C(=O)NCC(=O)O)NC(=O)[C@H](CO)NC(=O)[C@H](CCC(N)=O)NC(=O)[C@H](Cc2ccc(O)cc2)NC(=O)[C@H](Cc2ccc(O)cc2)NC(=O)[C@H](CCC(N)=O)NC1=O [9.54.90.12] (H-GCNIMLPFWGCGRDFECMSDCICQYYQSCG-OH; disulfide 2-21, 11-17, 23-29; N-terminus and C-terminus assumed) | 1.2 |  |
| CC[C@H](C)[C@H](NC(=O)[C@@H]1CSSC[C@H](NC(=O)CN)C(=O)N[C@@H](CC(N)=O)C(=O)N[C@@H]([C@@H](C)CC)C(=O)N[C@@H](CCSC)C(=O)N[C@@H](CC(C)C)C(=O)N2CCC[C@H]2C(=O)N[C@@H](Cc2ccc(O)cc2)C(=O)N[C@@H](Cc2c[nH]c3ccccc23)C(=O)NCC(=O)N[C@H]2CSSC[C@H](NC(=O)[C@H](CCC(=O)O)NC(=O)[C@H](Cc3ccccc3)NC(=O)[C@H](CC(=O)O)NC(=O)[C@H](CCCNC(=N)N)NC(=O)CNC2=O)C(=O)N[C@@H](CCSC)C(=O)N[C@@H](CC(N)=O)C(=O)N[C@@H](CCC(N)=O)C(=O)N1)C(=O)N[C@H]1CSSC[C@@H](C(=O)NCC(=O)O)NC(=O)[C@H](CO)NC(=O)[C@H](CCC(N)=O)NC(=O)[C@H](Cc2ccc(O)cc2)NC(=O)[C@H](Cc2ccc(O)cc2)NC(=O)[C@H](CCC(N)=O)NC1=O [9.54.90.13.F8Y] (H-GCNIMLPYWGCGRDFECMNQCICQYYQSCG-OH; disulfide 2-21, 11-17, 23-29; N-terminus and C-terminus assumed) |  | 2.02 |
| CC[C@H](C)[C@H](NC(=O)[C@@H]1CSSC[C@H](NC(=O)CN)C(=O)N[C@@H](CC(N)=O)C(=O)N[C@@H]([C@@H](C)CC)C(=O)N[C@@H](CCSC)C(=O)N[C@@H](CC(C)C)C(=O)N2CCC[C@H]2C(=O)N[C@@H](Cc2ccccc2)C(=O)N[C@@H](Cc2c[nH]c3ccccc23)C(=O)NCC(=O)N[C@H]2CSSC[C@H](NC(=O)[C@H](CCC(=O)O)NC(=O)[C@H](Cc3ccccc3)NC(=O)[C@H](CC(=O)O)NC(=O)[C@H](CCCNC(=N)N)NC(=O)CNC2=O)C(=O)N[C@@H](CCSC)C(=O)N[C@@H](CC(N)=O)C(=O)N[C@@H](CCC(N)=O)C(=O)N1)C(=O)N[C@H]1CSSC[C@@H](C(=O)NCC(=O)O)NC(=O)[C@H](CO)NC(=O)[C@H](CCC(N)=O)NC(=O)[C@H](Cc2ccc(O)cc2)NC(=O)[C@H](Cc2ccc(O)cc2)NC(=O)[C@H](CCC(N)=O)NC1=O [9.54.90.13] (H-GCNIMLPFWGCGRDFECMNQCICQYYQSCG-OH; disulfide 2-21, 11-17, 23-29; N-terminus and C-terminus assumed) | 0.96 | 0.96 |
| CC[C@H](C)[C@H](NC(=O)[C@@H]1CSSC[C@H](NC(=O)CN)C(=O)N[C@@H](CC(N)=O)C(=O)N[C@@H]([C@@H](C)CC)C(=O)N[C@@H](CCSC)C(=O)N[C@@H](CC(C)C)C(=O)N2CCC[C@H]2C(=O)N[C@@H](Cc2ccccc2)C(=O)N[C@@H](Cc2c[nH]c3ccccc23)C(=O)NCC(=O)N[C@H]2CSSC[C@H](NC(=O)[C@H](CCC(=O)O)NC(=O)[C@H](Cc3ccccc3)NC(=O)[C@H](CC(=O)O)NC(=O)[C@H](CCCNC(=N)N)NC(=O)CNC2=O)C(=O)N[C@@H](CCSC)C(=O)N[C@@H](CCC(N)=O)C(=O)N[C@@H]([C@@H](C)O)C(=O)N1)C(=O)N[C@H]1CSSC[C@@H](C(=O)NCC(=O)O)NC(=O)[C@H](CO)NC(=O)[C@H](CCC(N)=O)NC(=O)[C@H](Cc2ccc(O)cc2)NC(=O)[C@H](Cc2ccc(O)cc2)NC(=O)[C@H](CCC(N)=O)NC1=O [9.54.90.25] (H-GCNIMLPFWGCGRDFECMQTCICQYYQSCG-OH; disulfide 2-21, 11-17, 23-29; N-terminus and C-terminus assumed) | 1.26 |  |
| CC[C@H](C)[C@@H]1NC(=O)[C@H](Cc2ccccc2)NC(=O)[C@@H]2CSSC[C@H](NC(=O)CNC(=O)[C@H](Cc3c[nH]c4ccccc34)NC(=O)[C@H](Cc3ccccc3)NC(=O)[C@@H]3CCCN3C(=O)[C@H](CC(C)C)NC(=O)[C@H](CCSC)NC(=O)[C@H]([C@@H](C)CC)NC(=O)[C@H](CC(N)=O)NC(=O)[C@@H](NC(=O)CN)CSSC[C@@H](C(=O)N[C@H](C(=O)N[C@H]3CSSC[C@@H](C(=O)NCC(=O)O)NC(=O)[C@H](CO)NC(=O)[C@H](CCC(N)=O)NC(=O)[C@H](Cc4ccc(O)cc4)NC(=O)[C@H](Cc4ccc(O)cc4)NC(=O)[C@H](CCC(N)=O)NC3=O)[C@@H](C)CC)NC(=O)[C@H](CC(N)=O)NC1=O)C(=O)NCC(=O)N[C@@H](CCCNC(=N)N)C(=O)N[C@@H](CC(=O)O)C(=O)N[C@@H](Cc1ccccc1)C(=O)N[C@@H](CCC(=O)O)C(=O)N2 [9.54.90.44] (H-GCNIMLPFWGCGRDFECFINCICQYYQSCG-OH; disulfide 2-21, 11-17, 23-29; N-terminus and C-terminus assumed) | 1.16 |  |
| CC[C@H](C)[C@H](NC(=O)[C@@H]1CSSC[C@H](NC(=O)CN)C(=O)N[C@@H](CC(N)=O)C(=O)N[C@@H]([C@@H](C)CC)C(=O)N[C@@H](CCSC)C(=O)N[C@@H](CC(C)C)C(=O)N2CCC[C@H]2C(=O)N[C@@H](Cc2ccc(O)cc2)C(=O)N[C@@H](Cc2c[nH]c3ccccc23)C(=O)NCC(=O)N[C@H]2CSSC[C@H](NC(=O)[C@H](CCC(=O)O)NC(=O)[C@H](Cc3ccccc3)NC(=O)[C@H](CC(=O)O)NC(=O)[C@H](CCCNC(=N)N)NC(=O)CNC2=O)C(=O)N[C@@H](Cc2ccccc2)C(=O)N[C@@H](Cc2ccc(O)cc2)C(=O)N[C@@H](CCC(=O)O)C(=O)N1)C(=O)N[C@H]1CSSC[C@@H](C(=O)NCC(=O)O)NC(=O)[C@H](CO)NC(=O)[C@H](CCC(N)=O)NC(=O)[C@H](Cc2ccc(O)cc2)NC(=O)[C@H](Cc2ccc(O)cc2)NC(=O)[C@H](CCC(N)=O)NC1=O [9.54.90.62.F8Y] (H-GCNIMLPYWGCGRDFECFYECICQYYQSCG-OH; disulfide 2-21, 11-17, 23-29; N-terminus and C-terminus assumed) |  | 1.14 |
| CC[C@H](C)[C@H](NC(=O)[C@@H]1CSSC[C@H](NC(=O)CN)C(=O)N[C@@H](CC(N)=O)C(=O)N[C@@H]([C@@H](C)CC)C(=O)N[C@@H](CCSC)C(=O)N[C@@H](CC(C)C)C(=O)N2CCC[C@H]2C(=O)N[C@@H](Cc2ccccc2)C(=O)N[C@@H](Cc2c[nH]c3ccccc23)C(=O)NCC(=O)N[C@H]2CSSC[C@H](NC(=O)[C@H](CCC(=O)O)NC(=O)[C@H](Cc3ccccc3)NC(=O)[C@H](CC(=O)O)NC(=O)[C@H](CCCNC(=N)N)NC(=O)CNC2=O)C(=O)N[C@@H](Cc2ccccc2)C(=O)N[C@@H](Cc2ccc(O)cc2)C(=O)N[C@@H](CCC(=O)O)C(=O)N1)C(=O)N[C@H]1CSSC[C@@H](C(=O)NCC(=O)O)NC(=O)[C@H](CO)NC(=O)[C@H](CCC(N)=O)NC(=O)[C@H](Cc2ccc(O)cc2)NC(=O)[C@H](Cc2ccc(O)cc2)NC(=O)[C@H](CCC(N)=O)NC1=O [9.54.90.62] (H-GCNIMLPFWGCGRDFECFYECICQYYQSCG-OH; disulfide 2-21, 11-17, 23-29; N-terminus and C-terminus assumed) | 0.92 | 0.92 |
